The other results are listed elsewhere or left out. The list includes weakly bound sequences.

The target of this assay is MaxL homodimer (UniProt P61244). The experiment in a line: universal protein-binding microarray (PBM). To be noted: PBS-based mixture, 10 nM His-tagged protein dimer, 2% milk, 200 ng/uL BSA, 50 ng/uL salmon testes DNA, 0.02% TX-100; detection with Alexa 488 anti-His …; high values mean tight binding; most listed sequences are background and not binding sites; double strand, one strand shown.
Chain of UniProt P61244 (P61244 whole entry): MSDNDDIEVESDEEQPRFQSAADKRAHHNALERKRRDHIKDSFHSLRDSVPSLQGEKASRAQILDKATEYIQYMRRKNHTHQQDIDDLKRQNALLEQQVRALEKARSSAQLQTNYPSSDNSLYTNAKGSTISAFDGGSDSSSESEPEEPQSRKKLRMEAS
Take ACGCCGTC: the binding signal (normalized occupancy) is 0.0796. The value for CGGCTCAC was 0.0784; that for ACAGTGAC was 0.0748; that for CTAGCGGA was 0.0649. The value for AAGCGTGT was 0.0967; that for GCCTGAGA was 0.0663; that for CAACGAAA was 0.0741.

With AATGGGAG, the binding signal (normalized occupancy) was found to be 0.073. The value for AATATCAC was 0.0848; that for GAGCATCC was 0.0705. For the sequence AGAAACCT, the binding signal (normalized occupancy) was determined as 0.0763. Under ATTACAAT stands 0.0775. The value for CTTTACCC was 0.0758; that for CGATGAAA was 0.075. Consider CTAGATAA, for which the binding signal (normalized occupancy) came out at 0.0743. Under CAACTCCG stands 0.0688; under GTAGTCGA, 0.0806. Take CATAAAGG: the binding signal (normalized occupancy) stood at 0.0773.

Turning to ACGGTGTA, the binding signal (normalized occupancy) is 0.0823.

Regarding TCTGCAAA, the binding signal (normalized occupancy) amounted to 0.0737. The value for CGCGACCG was 0.0697. For the sequence ACCAGCGA, the binding signal (normalized occupancy) came to 0.0737. Under ACATCGAC stands 0.0736; under AGTAGCGC, 0.0686. The value for TATCCCAA was 0.0793; that for CCGTTCGC was 0.0677. The value for CCCCTACG was 0.0763. With GTACCTCA, the binding signal (normalized occupancy) was determined as 0.0765. Under AATGCAAG stands 0.0719. On to ATTGTTCA, for which the binding signal (normalized occupancy) is 0.0778.

On to CTCGTGAA, for which the binding signal (normalized occupancy) was 0.0894. Under CCACATCG stands 0.0796; under ACTCTACT, 0.0793. The value for ATAGCGGA was 0.0718.

For ATGTCAGG, the binding signal (normalized occupancy) was found to be 0.0795.

Turning to AGAGAAAC, the binding signal (normalized occupancy) was determined as 0.074. The value for ACCTTTAG was 0.0744; that for GAAAAAAA was 0.0757; that for GCTTGCAA was 0.0687. For the sequence AGTCGCGC, the binding signal (normalized occupancy) came to 0.0678. On to CTCCAGAG, for which the binding signal (normalized occupancy) turned out to be 0.069. Turning to AGACATCT, the binding signal (normalized occupancy) worked out at 0.0743. With AACCGATG, the binding signal (normalized occupancy) stood at 0.0705. On to GATATAAA, for which the binding signal (normalized occupancy) was determined as 0.0756.

Take CACCAAGC: the binding signal (normalized occupancy) amounted to 0.0721. Consider GAAGATTC, for which the binding signal (normalized occupancy) is 0.072. Under GAATGGAC stands 0.0779; under TTACCCAA, 0.0803. Turning to AGACCGAC, the binding signal (normalized occupancy) was 0.0743. In the case of CAGTACGA, the binding signal (normalized occupancy) came out at 0.0688. In the case of ACCAACAC, the binding signal (normalized occupancy) was determined as 0.083. Turning to TCATTGCA, the binding signal (normalized occupancy) turned out to be 0.0829. The value for CAATTGGC was 0.0716. For AGGTGTAG, the binding signal (normalized occupancy) was found to be 0.0785. The value for ACTGCGAG was 0.0737; that for ATACATTA was 0.0827. The value for ATTACGTG was 0.0901; that for ACTTCAGC was 0.0691; that for CAGCCCCG was 0.0702. Take CGGTGCAA: the binding signal (normalized occupancy) is 0.0717. For the sequence AGTGGGGG, the binding signal (normalized occupancy) was 0.0842. Under TCTGCGCA stands 0.0723; under TACATCGA, 0.0798; under GAGCCAGA, 0.0683.

For CAACTCTA, the binding signal (normalized occupancy) was determined as 0.0757.

With TACCCACA, the binding signal (normalized occupancy) was 0.0805. Under CCGACGAC stands 0.0752; under AACTTGGC, 0.0731.

As to CGGTTATC, the binding signal (normalized occupancy) stood at 0.0735. With AGTATCAG, the binding signal (normalized occupancy) amounted to 0.0783. GGGTTACC: the binding signal (normalized occupancy) stood at 0.0729. Consider AGAATACC, for which the binding signal (normalized occupancy) worked out at 0.0764. Regarding GATTCGGA, the binding signal (normalized occupancy) is 0.0782.

Take AATACCTA: the binding signal (normalized occupancy) was found to be 0.077.

In the case of AGCTTTCC, the binding signal (normalized occupancy) worked out at 0.0691.

For GAACGCTC, the binding signal (normalized occupancy) is 0.0703.

Regarding AGCCCAAC, the binding signal (normalized occupancy) worked out at 0.0747. The value for AAGATCCT was 0.0763; that for AAGCCAAG was 0.0715. Under CATGCGGG stands 0.121; under CCTGACCA, 0.0788. With ATGCGACA, the binding signal (normalized occupancy) is 0.0887.

With AATTGTGC, the binding signal (normalized occupancy) was 0.0772. As to GATGCGCA, the binding signal (normalized occupancy) is 0.0748. The value for ATTAATAG was 0.0805. As for AACCAGAT, the binding signal (normalized occupancy) turned out to be 0.0788. As to ATGTTTCG, the binding signal (normalized occupancy) turned out to be 0.0823. In the case of ATTCGTGG, the binding signal (normalized occupancy) is 0.074.

Take CACAACTA: the binding signal (normalized occupancy) stood at 0.0799.

For the sequence GATGAATC, the binding signal (normalized occupancy) is 0.0799. For AGAATCTC, the binding signal (normalized occupancy) came to 0.0755. Under ACGAAAGA stands 0.0677. The value for CTAGGATA was 0.0759; that for ATGAGAAT was 0.0796. Consider ACGGGGTA, for which the binding signal (normalized occupancy) came to 0.0812. For the sequence AACAAGAT, the binding signal (normalized occupancy) came out at 0.0772. Under ACAATATA stands 0.078; under ACTATACA, 0.0849. Under AAACTATA stands 0.0788.

As to GCAGGGGC, the binding signal (normalized occupancy) worked out at 0.0693. Under CAGTCAAC stands 0.0749; under CACAGCCA, 0.0748; under AGAGGGGC, 0.0664.

Regarding ACACGCAA, the binding signal (normalized occupancy) was determined as 0.087. The value for ACTAATAG was 0.0803. With GCTCCAAC, the binding signal (normalized occupancy) worked out at 0.0723. Consider AAGGCAAA, for which the binding signal (normalized occupancy) came out at 0.0722.

CTCCCCAC: the binding signal (normalized occupancy) is 0.083.

For CATATTCC, the binding signal (normalized occupancy) worked out at 0.0822. The value for AACCACAT was 0.0973. On to CCCGCTCC, for which the binding signal (normalized occupancy) was 0.0699. The value for CCAGGAGG was 0.0769; that for TGGTAACA was 0.079; that for AAATAGAT was 0.0798. The value for AGATCGAA was 0.0726; that for CCGAAGAA was 0.0707; that for ACGAGCGG was 0.077. Under AAGTTACA stands 0.0777; under AAAGACTG, 0.0736; under CGCCTGAG, 0.0661.

Turning to ACAGGGGG, the binding signal (normalized occupancy) amounted to 0.083. Turning to ACACACGA, the binding signal (normalized occupancy) was determined as 0.0911. Consider GCGCGCTA, for which the binding signal (normalized occupancy) was determined as 0.0788. Take ATTGGTGG: the binding signal (normalized occupancy) stood at 0.0738.

Take ATGCGCCC: the binding signal (normalized occupancy) stood at 0.077. The value for CGGAAGAG was 0.0699. In the case of AGTGGTAA, the binding signal (normalized occupancy) was determined as 0.0751. The value for GGATAGTA was 0.0777; that for GTCGGCCA was 0.0706; that for GCCTTGAC was 0.0714. GAGGAAGC: the binding signal (normalized occupancy) turned out to be 0.0694. On to ATTTGTTG, for which the binding signal (normalized occupancy) stood at 0.0766.

On to CAGTCAGG, for which the binding signal (normalized occupancy) was found to be 0.0732. Turning to CAAACCCG, the binding signal (normalized occupancy) stood at 0.0714. Under AAACGGCG stands 0.0688. The value for AAACGATT was 0.0732; that for ATATCCGC was 0.0783; that for CATTAGTA was 0.0793. Turning to GAAACAAC, the binding signal (normalized occupancy) is 0.0771. Under CCTAAGCC stands 0.0716; under AAACAGTT, 0.0706; under TCGTAGCA, 0.0796. AATTAAAT: the binding signal (normalized occupancy) came to 0.0748.

AAATGCGA: the binding signal (normalized occupancy) amounted to 0.0758. In the case of CCGGGGCG, the binding signal (normalized occupancy) came to 0.063. Under AGGCGCCG stands 0.07. Under GATAGTGC stands 0.0782. For ACGACCAT, the binding signal (normalized occupancy) amounted to 0.0839. On to CGCTCCTC, for which the binding signal (normalized occupancy) came out at 0.0703.

For the sequence AGTCGTTA, the binding signal (normalized occupancy) turned out to be 0.0733. For the sequence CTTAGTTA, the binding signal (normalized occupancy) came out at 0.0752.

As for AGAGCTAT, the binding signal (normalized occupancy) was found to be 0.0714.

Turning to AGCTAGCC, the binding signal (normalized occupancy) is 0.0677. Under GAAGTGGA stands 0.069; under AAATTAGA, 0.0802. As for AGGGCATA, the binding signal (normalized occupancy) is 0.0779. The value for AAAACGTC was 0.0704; that for ATATGGCG was 0.0846; that for CGACCATA was 0.0821. The value for CAAGTCCG was 0.071; that for TAGCCCTA was 0.0704; that for GCCAACGA was 0.0736.

For the sequence GAAAAAAC, the binding signal (normalized occupancy) stood at 0.0761. Under GAATTAAA stands 0.0764; under ACACATGT, 0.127; under AAAATTGG, 0.0771.

As for TCTGCGAA, the binding signal (normalized occupancy) is 0.067.

Take CGAAGCCG: the binding signal (normalized occupancy) worked out at 0.0702. The value for GCAGAGAA was 0.068; that for GCCGTTAA was 0.0697. The value for AATTGACT was 0.0734. Under ACTGACCG stands 0.0669; under ACGAATCT, 0.0734; under AAGAATAG, 0.0759. For AAACACTC, the binding signal (normalized occupancy) was 0.0801.

On to CGGCTAGC, for which the binding signal (normalized occupancy) was found to be 0.0645. Under AATCCGCA stands 0.0758. The value for AAGATTAC was 0.0705.

For GGCTGTTA, the binding signal (normalized occupancy) worked out at 0.0784. Take TCTCGTCA: the binding signal (normalized occupancy) is 0.077.

ACCATAGC: the binding signal (normalized occupancy) stood at 0.0741. As to ACCAATAA, the binding signal (normalized occupancy) is 0.0733. Consider CCCCGCCA, for which the binding signal (normalized occupancy) was 0.0771. Under GGCGCGAA stands 0.0672. Under CAAATTTG stands 0.0694; under CCGACTGC, 0.0663; under CGCTGTTC, 0.0749. With GGGGATAA, the binding signal (normalized occupancy) turned out to be 0.0829. As to GGACCTGA, the binding signal (normalized occupancy) was 0.075. The value for CGCTCAAC was 0.0727. Turning to ACTCAACC, the binding signal (normalized occupancy) was 0.0725. Take CCGTCTCG: the binding signal (normalized occupancy) amounted to 0.0722. Regarding ACTTAGCA, the binding signal (normalized occupancy) amounted to 0.075.

As to AACGCTTG, the binding signal (normalized occupancy) worked out at 0.0697.

In the case of AGGGAACA, the binding signal (normalized occupancy) was determined as 0.0752. Under ATCTACGC stands 0.0774. As for CCTGCAGG, the binding signal (normalized occupancy) is 0.074. The value for ACGCACCG was 0.0757; that for AAGGGTAG was 0.0742; that for CCCACGGC was 0.0782. On to CAAGGGCC, for which the binding signal (normalized occupancy) worked out at 0.064. Under AGGTCAGA stands 0.0716. Under GTATATAA stands 0.0774; under CGCAACAG, 0.0706. Under AACCAATC stands 0.0753. As for CGCTGGAC, the binding signal (normalized occupancy) is 0.0733.

On to GGATGTTA, for which the binding signal (normalized occupancy) was found to be 0.08. Consider CACGAGAC, for which the binding signal (normalized occupancy) was 0.1. The value for CCAAACCG was 0.0668; that for AGTAGTAA was 0.0731.

As for CCCGCACC, the binding signal (normalized occupancy) worked out at 0.0791. The value for GATTATGA was 0.0801; that for CGACACCG was 0.0721; that for AAACCCAG was 0.0706. Under ATGGGGCG stands 0.0866; under AGACTATG, 0.0801.

CAAGTAGC: the binding signal (normalized occupancy) came to 0.073.

For CGTGTGAG, the binding signal (normalized occupancy) came out at 0.0893.

On to CGCCAAGA, for which the binding signal (normalized occupancy) came out at 0.0708.

Values taken from PMC4242493.
